Test results reported in patent US20030124655A1, “Receptor protein specifically recognizing bacterial dna” (priority 2000, published 2003).

Columns and labels:
[1] = test system: dendritic cells derived from bone marrow; test: Surface molecule expression on dendritic cells (FACS)
[2] = test system: dendritic cells derived from bone marrow; test: IL-12 p40 production in bone marrow-derived dendritic cells (ELISA); assay type: cell-based, mouse; conditions: dendritic cells from TLR9 knockout mice; 0.1 μM, 2 days
peritoneal macrophages = test: Inflammatory cytokine production in peritoneal macrophages (ELISA); conditions: for production of TNF α, IL-6 and IL-12: macrophages from wild-type mice

TCC-ATG-ACG-TTC-CTG-ATG-CT (DNA TCCATGACGTTCCTGATGCT; listed as DNA, chemistry not given here) [CpG ODN]
expression of CD40, CD80, CD86 and MHC class II on the surface of dendritic cells ([1]; dendritic cells from TLR9 knockout mouse): does not promote the expression of these molecules
expression of CD40, CD80, CD86 and MHC class II on the surface of dendritic cells ([1]; dendritic cells from wild-type mouse): promotes the expression of CD40, CD80, CD86 and MHC class II
IL-12 p40 production [2]: did not induce the production of IL-12
production of inflammatory cytokines (peritoneal macrophages; macrophages from TLR9 knockout mice (TLR9-/-), even in the presence of IFN γ): did not produce a detectable level of inflammatory cytokines
production of TNF α, IL-6 and IL-12 (peritoneal macrophages; further stimulation by IFN γ): increases the amount of producing TNF α, IL-6 and IL-12
production of TNF α, IL-6 and IL-12 (peritoneal macrophages; supernatant, ELISA): produce TNF α, IL-6 and IL-12
